Experimental data taken from the supplement of paper PMC10126150.
Sequences with one replicate were seen in a single cluster, so their values are uncertain.

Test system: ATP
Experiment: switch fluorescence ratio, 500 uM ATP over buffer (Cy3 cluster intensity, sum of 5 cycles each) (fold (ratio)); higher = stronger signal-on switching upon ATP binding; sequences stand for … in TCGTCGGCAGCGTCAGATGTGTATAAGAGACAGTTTTTTTTTTTTTTTTTTTTTTTTT…TC
Conditions: aptamer strand: ATP DNA aptamer (quencher-CACCTGGGGGAGTATTGCGGAGGAAGG + anchor), 100 nM annealed; ATP concentration: 500 uM; one replicate
Procedure, shortened: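 For every switch-domain sequence, the fluorescence ratio is the mean of per-cluster values, each being summed target-cycle Cy3 intensity over summed buffer-cycle Cy3 intensity. Clusters outside 100-1000 RFU were excluded. On a modified Illumina MiSeq flow-cell, the Cy3-labelled switching-strand clusters were annealed to 100 nM quencher-labelled ATP aptamer, imaged in selection buffer and then after 15 min with 500 uM ATP at 22 °C. Five such cycles were run, with NaOH stripping and re-annealing between them.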
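Also: ATP exposure 15 min at 22 °C before imaging.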

| Sequence | switch fluorescence ratio |
| --- | --- |
| TGTCGTTC | 1.02 |
| TGGGCACGGG | 1.02 |
| TAACACTCAG | 1.05 |
| AAACACCCC | 1.24 |
| ATACGCGGAC | 3 |
| ACTGTAAGTA | 1.01 |
| AGTGTATCTA | 1.01 |
| CATTTATTAA | 0.99 |
| GTACGTGACG | 1.08 |
| GATCTTGCGC | 0.955 |
| ACCCTTTGAC | 1.06 |
| GGTCGGACCG | 1.01 |
| AGGCTACGCT | 1.02 |
| TTTCCCAGCT | 1.01 |
| GGATTCTAAG | 0.98 |
| GACGATACTT | 1.44 |
| GTCGAGAGGA | 0.967 |
| CAGTAGGGTG | 1 |
| AGTAAGTTTC | 0.949 |
| AGTTGAGCGG | 0.927 |
| TCTTTTCTTG | 1.02 |
| GGTTCTGA | 1.04 |
| CGGGACGTTG | 0.978 |
| AACTTAGCGC | 0.965 |
| CGGGAAAGG | 1 |
| GCGTCAGGCC | 1.01 |

| Sequence | switch fluorescence ratio |
| --- | --- |
| CTAAATCGGA | 0.975 |
| AGCCACTGGG | 1.06 |
| AGTGACATGC | 1.09 |
| AGCAAGCGT | 1.05 |
| TAGTCACACT | 1.03 |
| CCTCAGCAAG | 2.24 |
| ATTGCTTGGA | 0.956 |
| CACTCCGGGC | 2.24 |
| GTTATAGTAA | 0.95 |
| TGATGGCTAC | 1.28 |
| CCCCTCGG | 1.21 |
| TTTCGCGGAG | 1.03 |
| ATTAATTCGG | 1.02 |
| GGGCTCCCT | 1.02 |
| AGGACGGCTT | 1.05 |
| GGTAGATTGA | 0.994 |
| AGATGAAAGG | 1.03 |
| CGTCGGCGG | 0.97 |
| GTGGAAGATG | 1.04 |
| GAGGGCCCTC | 1.02 |
| AAACCTCTTT | 0.995 |
| TCGACGTGC | 1.68 |
| CCTTGATGCC | 0.967 |
| AGAGATTAAT | 0.951 |
| AAACATGGGG | 1.01 |
| GGAAGTTGCG | 1 |

| Sequence | switch fluorescence ratio |
| --- | --- |
| AATAAAATTC | 0.965 |
| ACTGGATTCT | 0.977 |
| TAATAATAT | 0.975 |
| GAATCTAGGA | 1.02 |
| TAGAGAAAAG | 1 |
| GCCGATTCAA | 1.16 |
| TTCATTGAAA | 0.975 |
| CAGCTTGACT | 1 |
| GCAGTCTCAT | 0.969 |
| ACAGGCGTT | 1.01 |
| AACCAGGAGA | 1.08 |
| CTGACCGA | 1.08 |
| AGATGTAATT | 1.01 |
| GCCACGTACA | 1.63 |
| CTGTACAACT | 1.03 |
| GTCGGCTGC | 1.18 |
| GTTGCGGTCG | 1.05 |
| GACCGAAATT | 0.988 |
| TCGGGAATGG | 0.994 |
| ATGTGCCAGG | 1.09 |
| TTAATCGCAC | 0.99 |
| ATGAACAGCT | 1.02 |
| GGTCGTAATC | 1.16 |
| ACCACGTGAT | 1.08 |
| TCAATAGTCT | 1.03 |
